Columns and labels:
human CXCL7 (NAP-2) = molecular target: T1, human CXCL7 (NAP-2) (Homo sapiens, UniProt P02775); experiment: Biacore surface plasmon resonance binding to human CXCL7; conditions: 25° C.
T1 sequence (P02775 59-128 limits assumed): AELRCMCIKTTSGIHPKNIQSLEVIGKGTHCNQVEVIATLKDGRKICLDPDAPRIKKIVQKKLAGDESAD
Experimental: Biacore 2000 instrument and Biacore 2000 Evaluation Software Version 4.1 are used for surface plasmon resonance analysis. A […] chip is prepared using manufacturer's EDC/NHS amine coupling method. Briefly, the surfaces of all four flow cells are activated by injecting a 1:1 mixture of EDC/NHS for 7 minutes at 10 μL/min. Protein A is diluted to 100 μg/mL in 10 mM acetate, pH 4.5 buffer, and immobilized to achieve approximately 10,000 RU onto all 4 flow cells by 7-minute injection at a flow rate of 10 μL/minute. Unreacted sites are blocked with a 7-minute injection of ethanolamine at 10 μL/minute. Two injections of glycine (pH 1.5) for 30 seconds at 10 μL/minute are used to remove any non-covalently associated protein. Running buffer is HBS-EP+.
Antibody 1 or Antibody 2 is diluted to 2 μg/mL in running buffer, and approximately 400-600 RU is captured in flow cell (Fc). Ligands are diluted from 100 μg/mL to 50 nM in running buffer and then two-fold serially diluted in running buffer to 3.125 nM. Duplicate injections of each ligand concentration are injected at 100 μL/min for 150 seconds followed by a dissociation phase. […] The on-rate (kon) and off-rate (koff) for each ligand are evaluated using a “1:1 (mass transfer) Binding” binding model. The affinity […] is calculated from the binding kinetics according to the relationship: KD=koff/kon.

[1] = molecular target: T2, human CXCL8 point mutant R6A (Homo sapiens, UniProt P10145, R33A); experiment: Biacore binding kinetics, human CXCL8 R6A; conditions: 25° C.
T2 construct: His-SUMO (N, cleaved yes); made in house; host or cells: E. coli
T2 sequence (P10145 28-99 R33A): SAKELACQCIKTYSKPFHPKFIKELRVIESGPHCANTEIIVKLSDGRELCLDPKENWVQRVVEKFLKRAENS
Source text: Several key contacts between the Antibody 1 Fab and wild type human CXCL8 are observed in the crystal structure and are further tested through binding kinetic studies and U937-huCXCR2 fluorescent imaging plate reader (FLIPR) neutralization of human CXCL8 point mutants. To study these key contacts, several point mutants (R6A, I10A, A35P, I40A, and L49A) are made based on the human CXCL8 sequence (SEQ ID NO: 27). Wild type, R6A, I10A, A35P, I40A, and L49A human CXCL8 point mutants are expressed, refolded, and purified according to standard techniques. Formation of disulfide bonds is confirmed by tryptic digest and mass fingerprint analysis, and activity is confirmed by neutrophil chemotaxis assay.
Binding kinetics are tested on a Biacore 2000 instrument with Biacore 2000 Evaluation Software Version 4.1 as described above.
The on-rate (kon) and off-rate (koff) for each ligand are evaluated using a “1:1 (mass transfer) Binding” binding model. The affinity (KD) is calculated from the binding kinetics according to the relationship: KD=koff/kon.

human CXCL6 = molecular target: T3, human CXCL6 (Homo sapiens, UniProt P80162); experiment: FLIPR neutralization using HMEC cells expressing human CXCR2, CXCL6; type: cell-based; conditions: CXCL6 10 nM; HMEC-huCXCR2 FLIPR
T3 sequence (P80162 40-114 limits assumed): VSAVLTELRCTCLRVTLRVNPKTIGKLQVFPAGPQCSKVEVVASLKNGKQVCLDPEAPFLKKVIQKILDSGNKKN
Source text: Since all of the ELR+ CXC chemokines can bind CXCR2 receptor, cells expressing CXCR2 were selected for in vitro studies. HMEC-huCXCR2 is an immortalized human endothelial cell line transduced with retrovirus for expression of human CXCR2 receptor. HMEC cells expressing human CXCR2 are able to induce intracellular Ca^2+ influx in response to human, cynomolgus monkey, rat, and mouse ELR+CXC chemokines. Intracellular Ca^2+ influx can be detected by a Fluorescent Imagine £late Reader (FLIPR). Chemokine neutralization should therefore also neutralize intracellular Ca^2+ influx induced by these chemokines.
HMEC-huCXCR2 is maintained in MCDB 31 medium supplemented with 10% fetal bovine serum, 2× GlutaMax, 1× non-essential amino acids, 1 μg/mL hydrocortisone, 10 ng/mL human Epidermal Growth Factor, and 0.4 μg/mL puromycin at 37° C. in 5% CO2. […] A cell plate and a ligand-antibody plate are loaded into a Fluorescent Imagine Plate Reader (FLIPR-3, Molecular Devices) programmed to transfer 50 μL of ligand-antibody to wells of the cell plate. Fluorescence is recorded every second for 90 seconds. The change in fluorescence (DRFU) is calculated from images 10 to 90. DRFU versus log (antibody concentration) is plotted and IC50 values are determined by nonlinear regression using Graph Pad Prism. […] Data are expressed as the mean of replicates. […]

B1: Antibody 1: antibody with heavy chain SEQ ID NO: 1 and light chain SEQ ID NO: 3, expressed in NSO cells (antibody)
heavy: QVQLVQSGAEVKKPGASVKVSCKASGYEFTSYWIHWVRQAPGQGLEWMGNISPNSGSANYNEKFKSRVTMTRDTSTSTVYMELSSLRSEDTAVYYCAREGPYSYYPSREYYGSDLWGQGTLVTVSSASTKGPSVFPLAPCSRSTSESTAALGCLVKDYFPEPVTVSWNSGALTSGVHTFPAVLQSSGLYSLSSVVTVPSSSLGTKTYTCNVDHKPSNTKVDKRV[human IgG4 Fc with S228P (EU numbers) not spelt out]
light: EIVLTQSPATLSLSPGERATLSCRASQSISNNLHWYQQKPGQAPRLLIYYTSRSVSGIPARFSGSGSGTDFTLTISSLEPEDFAVYYCGQNNEWPEVFGGGTKVEIKRTVAAPSVFIFPPSDEQLKSGTASVVCLLNNFYPREAKVQWKVDNALQSGNSQESVTEQDSKDSTYSLSSTLTLSKADYEKHKVYACEVTHQGLSSPVTKSFNRGEC
Which results are given for B1?
kon (human CXCL7 (NAP-2)): 9.00 ± 0.75 (1/Ms) × 10^5; KD (binding kinetics) [1]: No Binding; IC50 (human CXCL6): 1.122 (±0.523) ug/mL

— patent US10858425B2, “Pan-ELR+ CXC chemokine antibodies” (Eli Lilly and Company, priority 2013, dated 2020)
